# Laboratory results as given in PubChem BioAssay AID720709 (National Center for Advancing Translational Sciences (NCATS), 2013).
# The whole screen tested about 360,000 compounds, of which about 520 (0.14%) were called active. Inconclusive results, whose numbers are uncertain, are shown with a selection of clear calls. The call rests on the fitted dose curve; in most records, active means well fitted inhibition curve with a large enough effect; inconclusive means small, poorly fitted or top-dose-only effect; inactive means no such curve, though single readings can be large or run the other way. No potency is given beside an inconclusive call; the fits are too rough.
# Target: Rap guanine nucleotide exchange factor 3 (Homo sapiens) (UniProt O95398)
# Chain of UniProt O95398 (O95398 whole entry, looked up): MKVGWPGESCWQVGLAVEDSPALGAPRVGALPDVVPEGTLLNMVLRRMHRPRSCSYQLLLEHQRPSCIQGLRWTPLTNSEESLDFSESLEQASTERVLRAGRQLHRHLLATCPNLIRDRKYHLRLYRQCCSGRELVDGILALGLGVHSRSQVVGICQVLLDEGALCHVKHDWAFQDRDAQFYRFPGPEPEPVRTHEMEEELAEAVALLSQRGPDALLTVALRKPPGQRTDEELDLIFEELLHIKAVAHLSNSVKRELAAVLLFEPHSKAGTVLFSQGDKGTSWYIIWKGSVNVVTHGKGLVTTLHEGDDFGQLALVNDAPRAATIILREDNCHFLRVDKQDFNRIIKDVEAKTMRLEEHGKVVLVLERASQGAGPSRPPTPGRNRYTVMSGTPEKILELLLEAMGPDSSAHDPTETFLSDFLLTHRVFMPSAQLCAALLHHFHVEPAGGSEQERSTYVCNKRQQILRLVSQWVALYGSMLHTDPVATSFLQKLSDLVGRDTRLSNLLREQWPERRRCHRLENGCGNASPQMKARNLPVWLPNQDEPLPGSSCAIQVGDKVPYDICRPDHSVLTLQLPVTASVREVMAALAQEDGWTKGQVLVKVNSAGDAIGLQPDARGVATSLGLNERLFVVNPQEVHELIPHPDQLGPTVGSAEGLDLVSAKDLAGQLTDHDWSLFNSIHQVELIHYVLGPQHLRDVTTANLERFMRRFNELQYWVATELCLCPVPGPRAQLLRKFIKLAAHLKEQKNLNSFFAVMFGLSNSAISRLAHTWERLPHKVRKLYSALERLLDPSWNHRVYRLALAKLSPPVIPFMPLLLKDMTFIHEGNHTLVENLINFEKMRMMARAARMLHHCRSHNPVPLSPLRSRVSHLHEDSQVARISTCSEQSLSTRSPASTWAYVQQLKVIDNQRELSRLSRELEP
# Experiment: qHTS for Antagonist of cAMP-regulated guanine nucleotide exchange factor 3 (EPAC1): primary screen; further: nearly all actives have a fitted effect of over 50% in size;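 on activity change, negative = inhibition: plate controls were vehicle for no effect and positive control for full effect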
# Settings: EPAC1 GEF assay, Rap1b-BODIPY-GDP exchange fluorescence; activity change, negative = inhibition: at 115 µM (top of the series)
# Potency means the concentration at half of the fitted maximal effect; tags describe the fitted curve by direction and shape.
Structure (SMILES),"activity change, negative = inhibition",Potency
O=C(Nc1ccc(F)cc1F)c1cc(-c2ccco2)on1,inactive: -19.9%,–
O=C(O)CC(NC(=O)C(c1ccccc1)c1ccccc1)c1cccc([N+](=O)[O-])c1 (configuration not stated),–,"inconclusive [inhibitor, full curve]"
COc1ccc(/C=C2/SC(=S)N(CC(=O)O)C2=O)cc1OCc1ccc(Cl)cc1,inactive: 2.35%,–
O=C(NCCc1c[nH]c2ccccc12)C(=O)NCC1OCCN1S(=O)(=O)c1ccccc1 (configuration not stated),–,"inconclusive [inhibitor, full curve, poor fit]"
O=c1cc(-c2ccc(O)c(O)c2)oc2cc(O[C@@H]3O[C@H](CO)[C@@H](O)[C@H](O)[C@H]3O)cc(O)c12,–,"inconclusive [inhibitor, full curve]"
COCCn1c(SCC(=O)c2cc(C)n(C)c2C)nc2ccccc2c1=O,–,"inconclusive [inhibitor, partial curve]"
COc1ccc2nc(N3C(=O)C(O)=C(C(=O)c4ccco4)C3c3ccc(OC)c(OC)c3)sc2c1 (configuration not stated),inactive: -5.3%,–
O=C(O)C1CCN(S(=O)(=O)c2ccc3c(c2)OCCCO3)CC1,–,"inconclusive [inhibitor, partial curve]"
COc1c(-c2ccc(O)c(O)c2)oc2cc(O)cc(O)c2c1=O,–,"inconclusive [inhibitor, partial curve]"
COc1cc(/C=N/n2cnnc2)ccc1OCc1ccccc1,inactive: 2.76%,–
Cc1ccc(Cl)cc1N1CCN(C(=O)CN(c2ccccc2)S(=O)(=O)N(C)C)CC1,–,"inconclusive [inhibitor, full curve, poor fit]"
Cn1c(-c2ccccc2)cnc1NCc1ccccc1,–,"inconclusive [inhibitor, full curve, poor fit]"
CSCCC(NS(=O)(=O)c1ccc(C)cc1)C(=O)NC1CCCCC1 (configuration not stated),inactive: 4.97%,–
CCOc1cccc(C(=O)Nc2ccc3oc(Cc4ccc(Cl)cc4)nc3c2)c1,inactive: -10.7%,–
N=c1c(C(=O)NCCN2CCOCC2)cc2c(=O)n3ccccc3nc2n1CCCN1CCOCC1,–,"inconclusive [inhibitor, single point]"
O=C(NCc1ccco1)c1ccc2c(c1)N(Cc1ccc(Cl)cc1)CCS2,–,"inconclusive [inhibitor, single point]"
CCCCCCc1cc2cc(C(=O)OCC)c(=O)oc2cc1O,inactive: 1.31%,–
COC(=O)c1ccccc1NC(=O)Cn1c(=O)n(CCC(=O)NC2CCN(Cc3ccccc3)CC2)c(=O)c2ccccc21,–,"inconclusive [inhibitor, single point]"
CC(=O)c1cccc(NC(=O)CN2C(=O)c3cccnc3Oc3ccc(Cl)cc32)c1,–,"inconclusive [inhibitor, full curve, poor fit]"
COc1cc(C(=O)NCCNc2nc3ccc(C)cc3cc2C#N)cc(OC)c1OC,–,"inconclusive [inhibitor, full curve]"
COc1cc2c3nnc(-c4ccc(F)cc4)c-3cn(Cc3cccc(C)c3)c2cc1OC,inactive: -5%,–

Structure (SMILES),"activity change, negative = inhibition",Potency
O=C(CSc1nc2[nH]c(=O)cc(O)c2s1)Nc1nncs1,inconclusive: -8.93% [inhibitor],–
CC(C)c1ccc(C(=O)NCCCNC(=O)c2cnccn2)cc1,–,"inconclusive [inhibitor, partial curve]"
CCOC(=O)c1nnsc1C(OC)Oc1ccccc1 (configuration not stated),inactive: -0.554%,–
CCOC(=O)[C@]12CCCC=C1N(CCC1=CCCCC1)C(=O)[C@H](CC(=O)NCc1cccs1)C2,inactive: 6.54%,–
O=C(CSc1nc(-c2ccc(F)cc2)nc2c1Cc1ccccc1O2)Nc1ccc(C(=O)O)cc1,–,"inconclusive [inhibitor, full curve, poor fit]"
CC(=O)Nc1ccc(Nc2nnc(-c3ccc(C)c(S(N)(=O)=O)c3)c3ccccc23)cc1,–,"inconclusive [inhibitor, partial curve, poor fit]"
CCOc1ccc(NC(=O)/C(C#N)=C/c2ccc(N3CCCC3)c(C)c2)cc1,inactive: 89.8%,–
CCOc1cc(/C=C2\SC(=S)N(NS(=O)(=O)c3ccc(C)cc3)C2=O)ccc1O,–,"inconclusive [inhibitor, partial curve]"
CCC(=O)N1N=C(c2c(-c3ccccc3)c3cc(Cl)ccc3[nH]c2=O)CC1c1ccco1 (configuration not stated),–,"inconclusive [inhibitor, full curve, poor fit]"
O=C(CCC1N=C2c3ccccc3N=C(SCC(=O)NCc3ccco3)N2C1=O)NCc1ccco1 (configuration not stated),–,"inconclusive [inhibitor, single point]"
O=C(O)c1ccc2ncsc2c1,–,"inconclusive [inhibitor, partial curve]"
NCCNC(=O)c1c(O)c2cccc3c2n(c1=O)CCC3,inconclusive: -0.333% [inhibitor],–
C=Cc1ccc(Cn2c(C)c(C(=O)NCCC#N)sc2=O)cc1,–,"inconclusive [inhibitor, partial curve, poor fit]"
CS(=O)(=O)N1CCN(c2ccccc2NC(=O)Nc2cccc(Cl)c2)CC1,–,"inconclusive [inhibitor, full curve]"
NS(=O)(=O)c1ccc(CCNS(=O)(=O)c2cccc(C(=O)O)c2)cc1,inactive: 5.98%,–
Cc1[nH][nH]c(=O)c1/C=N/N1CCOCC1,inactive: -9.85%,–
CC(C)CN(/C=N/c1sc2c(c1C#N)CCCCC2)CC(C)C,inactive: -0.415%,–
O=C(C[C@H]1C[C@H](C(=O)N2CCCCC2)[C@@]2(CCc3ccccc3)c3[nH]c4cc(-c5ccco5)ccc4c3CCN2C1=O)NCc1ccco1,–,"inconclusive [inhibitor, partial curve]"
O=c1n(-c2ccccc2)c(=O)n(Cc2ccccn2)n1Cc1ccccn1,–,"inconclusive [inhibitor, single point]"
CC1CCCC(C)N1C(=O)COC(=O)CNC(=O)c1ccccc1 (configuration not stated),–,"inconclusive [inhibitor, single point]"
CCn1c(O)c(N=NC(=O)CNC(=O)Cc2ccccc2)c2ccccc21,–,"inconclusive [inhibitor, partial curve, poor fit]"
